From PubChem BioAssay AID686971 (National Center for Advancing Translational Sciences (NCATS), 2013)
The campaign covered roughly 360,000 compounds. About 7,500 (2.1%) were called active. Inconclusive results, whose numbers are uncertain, are shown with a selection of clear calls. Calls follow the shape of the dose curve; as a rule, active = well fitted cell-killing curve with a large enough effect; inconclusive = small, poorly fitted or top-dose-only effect, or effect the other way, or another doubt; inactive = no such curve, though single readings can be large or run the other way. Potencies of inconclusive entries are left out as doubtful fits.

assay: qHTS for induction of synthetic lethality in tumor cells producing 2HG: qHTS for the HT-1080-IDH1KD cell line; conditions: HT-1080 IDH1 knockdown viability, ATP luminescence, 48 h; activity, negative = toxicity: at 46.1 µM (top of the series) unless noted;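 as to activity, negative = toxicity: 0% = DMSO wells and -100% = cell-free medium wells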
Summary of the method: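 Cytotoxicity counter-line: IDH1KD HT-1080, 48 h, CellTiter-Glo. Curves classed by r2, magnitude and activity.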
Potency is read from the fitted curve at half-maximal effect; tags tell the direction and shape of the fitted curve.

Structure (SMILES)	Potency	activity, negative = toxicity
Cn1c(CCN2CCN(c3ccccn3)CC2)nc2cc(NS(=O)(=O)c3ccc(Cl)cc3)ccc21	inconclusive [cytotoxic, single point]	
CCOC(=O)c1c(C)n(-c2ccc(C)cc2)c2ccc(OCC(O)CN3CCN(C)CC3)cc12 (centres undefined)	active: 18.4 µM	
CCCCN(C(=O)c1cccc(-n2cnnn2)c1)c1c(N)n(CCCC)c(=O)[nH]c1=O	inactive	
COc1cccc(-c2cnc3c(NC(C)=O)cc(-c4cccc(NS(C)(=O)=O)c4)cn23)c1	inconclusive [cytotoxic, single point]	
CN(C)CCCN(C(=O)c1ccc(S(=O)(=O)N2CCc3ccccc32)cc1)c1nc2ccc(Cl)cc2s1	inconclusive [cytotoxic, partial curve]	
CCCCN(CC)S(=O)(=O)c1ccc(C(=O)Nc2nnc(-c3cccs3)o2)cc1	active: 8.2 µM	
CCc1nc2ccc(C(=O)NCCOc3ccc(OC)cc3)cn2c1N(CC)Cc1cccc(Br)c1	inconclusive [cytotoxic, single point]	
C=CCn1c(N)c(C(=O)Nc2ccccc2)c2nc3ccccc3nc21	inactive	
COc1ccc(CN2[C@@H](CC(C)=O)c3ccc(/C=C/C(C)=O)cc3S2(=O)=O)cc1	inconclusive [cytotoxic, single point]	
C=CC[C@@H](CC(=O)N[C@@H](CO)Cc1ccccc1)C(=O)N[C@H](COC(=O)[C@@H](CC=C)CC(=O)OC(C)(C)C)Cc1c[nH]c2ccccc12	inconclusive [cytotoxic, single point]	
Cc1c(NC(=O)c2coc(=O)c(Br)c2)c(=O)n(-c2ccccc2)n1C	inconclusive [cytotoxic, single point]	
Cc1ccccc1C(CC(=O)c1cccs1)C(C#N)C#N (centres undefined)	inconclusive [cytotoxic, single point]	
O=C(O)c1cc(/C=C/c2ccc(N3CCOCC3)cc2)nc2ccccc12	inconclusive [cytotoxic, single point]	
O=C(CNC(=O)C1CCCCC1)NNC(=O)c1ccccc1Br	inactive	
Cc1cccc(NC(=O)C(=O)N/N=C/c2ccncc2)c1		inconclusive: 30.2%
Cc1ccc(SCCC(=O)N/N=C/c2ccccc2O)cc1	inconclusive [cytotoxic, single point]	
CCOC(=O)C1CCCN(C(=S)NC(=O)c2cc(Br)ccc2Cl)C1 (centres undefined)	inactive	
CO/N=C\CC(=O)Nc1ccc(Oc2ccccc2)cc1	inconclusive [cytotoxic, full curve]	
CCCn1c2ccccc2c2nnc(SCCN3CCOCC3)nc21	inconclusive [cytotoxic, partial curve, poor fit]	
Cc1cc(C)n2c(NCc3ccccc3)c(-c3cc4ccccc4o3)nc2n1	inconclusive [cytotoxic, single point]	
O=S(=O)(c1ccc(Br)cc1)N1CCC(c2nc3ccccc3[nH]2)CC1	inconclusive [cytotoxic, single point]	
NC(=O)c1ccsc1NC(=O)CSc1nnc(NC2CC2)s1	inactive	
NC(=O)C1CCN(Cc2nc3cc(Cl)ccc3c(=O)[nH]2)CC1	active: 18.4 µM	
CS(=O)(=O)Nc1ccc(C(=O)Nc2ccc(S(=O)(=O)N3CCCCC3)cc2)cc1	inactive	
COc1ccc(C(=O)O/N=C(\N)c2ccccc2)c(OC)c1	inactive	

Structure (SMILES)	Potency	activity, negative = toxicity
CCn1nc(C)c(Br)c1C(=O)Sc1ccccc1Cl	inconclusive [cytotoxic, single point]	
CCOc1ncccc1C(=O)Nc1ccc2c(c1)OCCO2	inactive	
C/C(=N\NC(=O)c1nnn(-c2nonc2N)c1CN(C)c1ccccc1)c1ccccc1O	inconclusive [cytotoxic, partial curve]	
COc1ccc(-c2cc([C@H]3[C@@H]4C=CCC[C@@]4(C)C(=O)N3Cc3ccccc3)ccc2F)cc1	inconclusive [cytotoxic, single point]	
O=c1[nH]c2ccc(Cl)cc2c(-c2ccccc2)c1SC(=S)N1CCCCC1	active: 16.4 µM	
O=C(CCCO)N/N=C/c1cc(Br)ccc1O	inconclusive [cytotoxic, single point]	
CCOc1ccc(Cc2c(Cl)nc(SC)nc2N(C)C)cc1	inconclusive [cytotoxic, single point]	
COCCn1c(SCc2ccc(Cl)cc2)nc2c1c(=O)[nH]c(=O)n2C		inconclusive: -16.6% [cytotoxic]
CC1=C/C(=N\OS(=O)(=O)c2ccccc2)C=CC1=O	active: 20 µM	
CCN(CC(=O)Nc1c(F)cccc1F)C(=O)c1ccc2c(c1)OCCO2	inactive	
Cc1cc(C)c2nc(C(F)(F)F)nc(N3CCN(C(=O)c4ccco4)CC3)c2c1	inactive	
CCOc1ncccc1C(=O)Nc1ccc2c(c1)OCCCO2	inactive	
COc1c(C)cc(C(O)c2ncc(-c3ccc4ccccc4c3)[nH]2)cc1C (centres undefined)	inconclusive [cytotoxic, single point]	
CC(C)Cn1c(N)c(C(=O)CSc2nccn2C)c(=O)n(C)c1=O	inactive	
CC1=C(C(=O)Nc2ccccc2)C(c2ccco2)C(C#N)=C(SCC(=O)OC(C)C)N1 (centres undefined)	inconclusive [cytotoxic, single point]	
N#Cc1c(-c2ccco2)cc(C2CC2)nc1N	inconclusive [cytotoxic, partial curve, poor fit]	
O=C(NCc1ccco1)c1cc(-c2ccccc2)on1	inactive	
Cn1c(Nc2ccc(Cl)cc2F)nc2cc(-c3ccccc3)sc2c1=O	inactive	
CC(C)c1ccc2c(c1)C(N1CCN(C)CC1)Cc1cccnc1S2 (centres undefined)	inconclusive [cytotoxic, single point]	
COc1ccc2[nH]c(=O)c3c(c2c1)OC(C)(C)C=C3	inconclusive [cytotoxic, single point]	
Nc1ccccc1-c1ccn[nH]1	inconclusive [cytotoxic, partial curve]	
CC1CCCN(C(=O)N2c3ccccc3Sc3ccccc32)C1 (centres undefined)	active: 10 µM	
O=C(Nc1ccncc1)c1ccccc1F	inactive	
CC(=O)Nc1n[nH]c(=S)s1		inconclusive: -31.4% [cytotoxic]
COc1ccc(-c2ccc(SCC(=O)NCc3ccc4c(c3)OCO4)nn2)cc1OC	inconclusive [cytotoxic, partial curve, poor fit]	

Structure (SMILES)	Potency	activity, negative = toxicity
COc1cc(CN2CCc3c([nH]c4ccccc34)C2)cc(OC)c1	inconclusive [cytotoxic, single point]	
Cc1ccc(Nc2cc(C)nc(-c3ccccc3O)n2)cc1	inactive	
COc1cccc(NC(=O)CN(C)C(=O)c2cn(-c3ccccc3)nc2-c2cccs2)c1	inconclusive [cytotoxic, single point]	
O=C(O)Cc1cn(Cc2ccc(F)cc2)c2ccccc12	inactive	
CC1=C(C(=O)N2CCOCC2)CC(CC(=O)NCc2ccco2)C(=O)N1Cc1ccc(C(C)(C)C)cc1 (centres undefined)	inactive	
O=C(C1CC(=O)N(C2CCCC2)C1)N1CCN(c2cccc(Cl)c2)CC1 (centres undefined)	inactive	
COc1cc(CNC(=O)c2cc3ccccc3oc2=O)cc(OC)c1OC	inactive	
O=C(Cc1ccsc1-c1ccccc1)NO	inconclusive [cytotoxic, single point]	
Cc1cccc(Nc2nc(N)nc(CCl)n2)c1	inconclusive [cytotoxic, single point]	
COC(=O)[C@@]12C[C@@H](CC(=O)NCc3cccc4ccccc34)C(=O)N(Cc3ccccc3)C1=CCC(C)(C)C2	inconclusive [cytotoxic, single point]	
COCCNC(=O)C(c1ccc(F)cc1)N(C(=O)CCC(=O)Nc1nccs1)c1cccc(C)c1 (centres undefined)	inactive	
CCN(CC)CCCNC(=S)N(Cc1cccs1)Cc1cc2cc3c(cc2[nH]c1=O)OCCO3	inconclusive [cytotoxic, single point]	
COc1ccc(CCNC(=O)c2n[nH]c(=O)c3ccccc23)cc1	inconclusive [cytotoxic, single point]	
C/C(=N\N1C(=O)c2ccccc2NC1c1ccco1)c1ccccc1O (centres undefined)	inconclusive [cytotoxic, single point]	
Cc1ccc(C)n1-c1ccc(C(=O)NCC2CCCO2)cc1 (centres undefined)	inactive	
O=C(Nc1cccc(F)c1)c1cccnc1NCCc1ccccc1	inconclusive [cytotoxic, single point]	
O=C(N/N=C/c1cc(Br)ccc1O)c1cccc(N2CCCC2=O)c1	inconclusive [cytotoxic, full curve]	
COc1ccc(COCC(O)CN2CCC(C(N)=O)CC2)cc1OC (centres undefined)	inactive	
O=C(Nc1ccc(F)cc1)C(c1cccc(F)c1)N1CCN(c2ccncc2)CC1 (centres undefined)	inactive	
Cc1cc(-c2nc(C)c(C(=O)NN)s2)no1	inconclusive [cytotoxic, partial curve]	
COc1ccc(Cl)cc1-c1nc(-c2ccc(NC(=O)c3ccncc3)cc2)no1	inactive	
CCc1ccc(CN(C)C(=O)c2cc(COc3c(F)cccc3F)on2)cc1	inactive	
COCCN(C(=O)c1snc(C(N)=O)c1N)C(C(=O)NC1CCCCC1)c1ccc(N(C)C)cc1 (centres undefined)	inactive	
COc1ccc(CCNC(=O)CSc2nnc(CNc3ccc(Cl)cc3)o2)cc1OC	inconclusive [cytotoxic, partial curve]	
